Test results from PubChem BioAssay (NCATS).
Values joined by “and” are separate entries in the source; they are usually repeats but may differ in a detail not shown here. Equal values may be shown once. The inconclusive results got no clear call from the source; some entries with a clear call stand among them for comparison. For some of these results: Potencies beside an inconclusive call are fits to weak or partial responses and may not hold up. Active and inactive are the calls of the source. Calls come from the whole dose curve; as a rule, active = well fitted curve in the direction sought with a large enough effect; inconclusive = small, poorly fitted or top-dose-only effect, or another doubt; inactive = no such curve, though single readings can be large; an effect the other way counts as inactive or inconclusive.

Key:
[1] = biological target: Cellular tumor antigen p53 (Homo sapiens) (UniProt P04637); test: Primary qHTS for small molecule compounds that upregulate eGFP-tagged delta133p53alpha (in N-terminal) cells. (AID 2060322); settings: NCI-H358 eGFP-delta133p53alpha fluorescence, 24 h; activation: stronger effect = higher value;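 note: cells pre-induced with doxycycline then dosed without doxycycline; nearly all actives have a fitted effect of over 75% in size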; note: potency is the fitted concentration of half-maximal effect;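 for activation: 0% = DMSO vehicle and 100% = reference activator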
Outline: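 NCI-H358 cells pre-induced 24 h with 10 ng/ml doxycycline for eGFP-delta133p53alpha, plated dox-free and exposed 24 h at 37C to titrated compounds. Fixed, Hoechst-stained; gated GFP peak intensity by laser scanning cytometry, normalized to DMSO (0%) and 57.5 uM 5-azacytidine (100%).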

[2] = BET inhibitor-based combinations targeting novel dependencies in MECOM-rearranged (r) AML: OCI-AML3 cell line (AID 2202232); settings: CellTiter-Glo luminescence, 48 h; Potency: OCI-AML3 viability; viability (% of control): at 46 µM (top of the series); note: nearly all actives have a fitted effect of over 35% in size; note: potency is the fitted concentration of half-maximal effect;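 for viability (% of control): plate controls were DMSO vehicle wells for no effect and wells without cells for full effect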
Outline: (§1)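 AML cell lines seeded at 500 cells/well, treated with 11-point dose curves for 48 h. Viability by CellTiter-Glo luminescence, normalised to DMSO and empty wells; activity expressed as AUC and per-cell-line Z-transformed AUC.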

[3] = BET inhibitor-based combinations targeting novel dependencies in MECOM-rearranged (r) AML: HNT-34 cell line (AID 2202234); note: nearly all actives have a fitted effect of over 35% in size; note: potency is the fitted concentration of half-maximal effect;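 for viability (% of control): plate controls were vehicle wells for no effect and cell-free wells for full effect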
Outline: (§2)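 Cells at 500/well were exposed for 48 hr to MIPE v5.0 drugs as 11-point dose curves. Viability was read by CellTiter-Glo luminescence and normalized to DMSO and empty-well controls. Activity was expressed as AUC and per-cell-line Z-AUC.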

[4] = BET inhibitor-based combinations targeting novel dependencies in MECOM-rearranged (r) AML: UCSD-AML1 cell line (AID 2202235); settings: UCSD-AML1 AML cells viability, CellTiter-Glo, 48 h; viability (% of control): at 46 µM (top of the series); note: potency is the fitted concentration of half-maximal effect; nearly all actives have a fitted effect of over 40% in size
Outline: as §2

[5] = BET inhibitor-based combinations targeting novel dependencies in MECOM-rearranged (r) AML: AML-194 cell line (AID 2202237; note: nearly all actives have a fitted effect of over 40% in size; note: potency is the fitted concentration of half-maximal effect;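 for viability (% of control): plate controls were vehicle wells for no effect and wells without cells for full effect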)
Outline: as §1

[6] = BET inhibitor-based combinations targeting novel dependencies in MECOM-rearranged (r) AML: MV-4-11 cell line (AID 2202233); settings: MV-4-11 AML viability, CellTiter-Glo luminescence, 48 h; viability, % of control: at 46 µM (top of the series) unless noted; note: nearly all actives have a fitted effect of over 45% in size; note: potency is the fitted concentration of half-maximal effect;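 for viability, % of control: plate controls were DMSO for no effect and blank wells for full effect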
Outline: as §2

[7] = BET inhibitor-based combinations targeting novel dependencies in MECOM-rearranged (r) AML: AML-191 cell line (AID 2202236;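 note: plate controls were vehicle wells for no effect and wells without cells for full effect; nearly all actives have a fitted effect of over 35% in size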)
Outline: as §1
Tags give direction and shape of the fitted curve.

Chain of UniProt P04637 (P04637 whole entry, looked up): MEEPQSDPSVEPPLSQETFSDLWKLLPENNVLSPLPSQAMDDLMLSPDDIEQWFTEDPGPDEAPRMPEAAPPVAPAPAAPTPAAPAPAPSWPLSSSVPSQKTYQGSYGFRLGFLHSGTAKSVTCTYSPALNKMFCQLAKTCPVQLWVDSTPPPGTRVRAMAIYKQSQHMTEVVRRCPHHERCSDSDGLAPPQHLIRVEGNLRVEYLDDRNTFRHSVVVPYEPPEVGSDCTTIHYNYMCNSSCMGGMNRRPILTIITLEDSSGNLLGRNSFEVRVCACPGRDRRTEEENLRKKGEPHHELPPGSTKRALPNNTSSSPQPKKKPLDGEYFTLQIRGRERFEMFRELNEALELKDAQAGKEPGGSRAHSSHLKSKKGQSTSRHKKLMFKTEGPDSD

In the case of O=c1ncn2nc(Sc3ccc(F)cc3F)ccc2c1-c1c(Cl)cccc1Cl, the activation [1] is reported as inactive: 2.34%, the Potency [2] is reported as inconclusive: 23.5 µM [inhibitor, partial curve] and the Potency [3] is reported as inconclusive: 26.3 µM [inhibitor, single point]. For the same compound, the Potency [4] was inconclusive: 33.2 µM [inhibitor, single point].

For Cc1cc(-c2ccc(CC(=O)Nc3ccc(-c4cccnc4)cc3)cc2)ccn1, the Potency [1] was inconclusive: 10.9 µM [activator, single point], the Potency [2] was inconclusive: 5.25 µM [inhibitor, partial curve] and the Potency [3] was inconclusive: 10.5 µM [inhibitor, full curve, poor fit]. For the same compound, the Potency [4] was inconclusive: 6.61 µM [inhibitor, full curve, poor fit] and the Potency [5] was inconclusive: 18.6 µM [inhibitor, partial curve, poor fit].

For CN1CCN(c2cccc(Nc3nc4c(-c5ccc(S(C)(=O)=O)cc5)cccn4n3)c2)CC1, the Potency [1] was inconclusive: 1.09 µM [activator, full curve, poor fit] and inconclusive: 37.9 µM [activator, single point], the Potency [2] was inconclusive: 6.61 µM [inhibitor, partial curve] and the Potency [6] was active: 0.662 µM. The Potency [5] was active: 13.2 µM.

With Cc1cc(=O)oc2cc(O)ccc12 the activation [1] was inactive: -17.5% and inactive: -1.39%, the Potency [2] was “inactive” and the Potency [6] was “inactive”. For the same compound, the Potency [3] was “inactive”, the Potency [7] was “inactive” and the Potency [5] was “inactive”.

With COC(=O)N[C@@H](C)CNc1nccc(-c2cn(C(C)C)nc2-c2cc(Cl)cc(NS(C)(=O)=O)c2F)n1 the Potency [1] was inconclusive: 2.13 µM [activator, partial curve, poor fit], the Potency [2] was active: 1.66 µM and the Potency [3] was active: 0.833 µM.
